# Out of some 410,000 compounds screened, about 6,400 (1.6%) were called active. The inconclusive results got no clear call from the source; some entries with a clear call stand among them for comparison. The call rests on the fitted dose curve; in most records, active means well fitted inhibition curve with a large enough effect; inconclusive means small, poorly fitted or top-dose-only effect; inactive means no such curve, though single readings can be large or run the other way. No potency is given beside an inconclusive call; the fits are too rough.
# Biological target: Glucagon-like peptide 1 receptor (Homo sapiens) (UniProt P43220)
# Assay: qHTS of GLP-1 Receptor Inverse Agonists (Inhibition Mode); further: nearly all actives have a fitted effect of over 55% in size
# Details: HEK293 GLP-1R CRE-luciferase, luminescence, 24 h, GLP-1R form is constitutively active; activity change, negative = inhibition: at 38.3 µM (top of the series) unless noted
# How it was run: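 Seeding at 200 cells/uL, 12 h culture, 24 hr compound treatment, then luciferase reagent and a luminescence read; cells are HEK293 stably expressing a constitutively active GLP-1R plus cAMP-responsive luciferase.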
# On the % scale 0 is the no-effect control and ±100 the full control effect; potency means the concentration at half of the fitted maximal effect; tags describe the fitted curve by direction and shape.
# UniProt P43220, sequence (P43220 whole entry, looked up): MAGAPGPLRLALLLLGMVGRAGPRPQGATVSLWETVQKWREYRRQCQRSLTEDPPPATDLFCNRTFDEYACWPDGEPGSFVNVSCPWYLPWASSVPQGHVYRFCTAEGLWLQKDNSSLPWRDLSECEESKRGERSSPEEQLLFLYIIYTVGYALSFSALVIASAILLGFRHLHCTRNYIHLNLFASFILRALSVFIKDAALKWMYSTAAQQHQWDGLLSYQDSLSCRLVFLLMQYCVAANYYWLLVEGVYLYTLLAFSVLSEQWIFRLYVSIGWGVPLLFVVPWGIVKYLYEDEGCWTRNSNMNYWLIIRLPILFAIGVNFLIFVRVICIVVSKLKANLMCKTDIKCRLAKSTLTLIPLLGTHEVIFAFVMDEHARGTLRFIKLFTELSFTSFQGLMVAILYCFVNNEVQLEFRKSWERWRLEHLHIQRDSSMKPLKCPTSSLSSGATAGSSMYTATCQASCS
Compound,Potency,"activity change, negative = inhibition"
COc1ccccc1/C=C/C(=O)OCC(=O)N1c2ccccc2CC1C (stereo not drawn),"inconclusive [inhibitor, partial curve]",
CN(C)C(CNC(=O)c1cccc(S(=O)(=O)NCc2ccccc2)c1)c1ccco1 (stereo not drawn),"inconclusive [inhibitor, single point]",
COc1ccc(C)cc1Nc1n[n+](-c2ccccc2)c(-c2cccc(Cl)c2Cl)s1,"inconclusive [inhibitor, partial curve, poor fit]",
O=C(CC1CC2CCC1C2)NCCc1ccc(Cl)cc1 (stereo not drawn),"inconclusive [inhibitor, single point]",
CCCOc1ccc(OCCCCNC(C)CC)cc1 (stereo not drawn),"inconclusive [inhibitor, partial curve, poor fit]",
Cc1ccc2c(c1)c1c3n2CCN(CC(O)CNC(C)C)C3CCC1 (stereo not drawn),"inconclusive [inhibitor, partial curve, poor fit]",
CC(=O)c1csc(COc2cc(Cl)cc(Cl)c2)n1,"inconclusive [inhibitor, partial curve]",
COc1ccccc1NC(=S)NC(=O)CC(C)C,"inconclusive [inhibitor, full curve]",
S=c1[nH]nc(CCc2ccccc2)n1-c1ccc(Cl)cc1,"inconclusive [inhibitor, single point]",
O=C(CN(c1ccccc1Cl)S(=O)(=O)c1ccccc1)NC1CC2CCC1C2 (stereo not drawn),"inconclusive [inhibitor, partial curve, poor fit]",
Cc1cc(C(=O)NCc2ccco2)sc1C,,inactive: -17.2%
Cc1cc(C)cc(C(=O)N2CC(=O)Nc3ccc(C)cc3C2c2ccccc2)c1 (stereo not drawn),"inconclusive [inhibitor, single point]",
CSc1ccccc1OCc1cc(C(=O)N(C)Cc2nonc2C)no1,"inconclusive [inhibitor, single point]",
CCc1ccccc1NC(=S)N(Cc1ccco1)C(C)c1cccs1 (stereo not drawn),"inconclusive [inhibitor, single point]",
CCOC(=O)C1CCCN(C(=S)Nc2cccc(Cl)c2C)C1 (stereo not drawn),"inconclusive [inhibitor, single point]",
CCOc1ccccc1C(=O)N(Cc1ccc(N(C)C)cc1)CC1CCCO1 (stereo not drawn),,inactive: -10%
CC(C)(C)OC(=O)N1CCC(c2c(C(=O)N3CCc4ccccc4C3)cnn2-c2ccc(Cl)cc2)CC1,"inconclusive [inhibitor, single point]",
CCCCc1cc(=O)oc2cc(C)cc(OCC(=O)Nc3cccnc3)c12,"inconclusive [inhibitor, full curve, poor fit]",
O=C(OCC(=O)N1CCc2ccccc21)c1c2c(nc3ccccc13)CCCC2,"inconclusive [inhibitor, single point]",
CCOc1ccc(-c2cc(C(=O)NCc3cc(OC)cc(OC)c3)[nH]n2)c(C)c1,"inconclusive [inhibitor, partial curve, poor fit]",
CC1(C)N=C(SCC(=O)Nc2ccc(Cl)cc2)C(c2ccccc2)=N1,"inconclusive [inhibitor, partial curve, poor fit]",

Compound,Potency,"activity change, negative = inhibition"
Cc1sc(NC(=O)c2cccs2)nc1-c1ccccc1,"inconclusive [inhibitor, single point]",
O=C(OCc1cc(=O)n2ccsc2n1)C1(c2ccc(Cl)cc2)CC1,,inactive: 38.1%
Cc1ccc2cccc(NC(=O)c3cccc4ccccc34)c2n1,active: 11.2 µM,
CN1CCN(c2ncnc3c2cnn3-c2ccc(Cl)cc2)CC1,"inconclusive [inhibitor, full curve, poor fit]",
O=S1(=O)CC(N2CCC(Cc3ccccc3)CC2)CN1C1CCCC1 (stereo not drawn),"inconclusive [inhibitor, partial curve, poor fit]",
Cc1cc(NC(c2nnc(-c3ccccc3)o2)c2ccccc2F)ccc1Br (stereo not drawn),"inconclusive [inhibitor, partial curve, poor fit]",
COc1ccc(CC(=O)N/N=C/C=C/c2ccc3c(c2)OCO3)cc1OC,,inactive: 17%
Cc1ccc(C(=O)Cn2nc(C)c([N+](=O)[O-])c2C)c(C)c1,"inconclusive [inhibitor, full curve, poor fit]",
CCS(=O)(=O)N1Cc2ccccc2CC1C(=O)Nc1nc2ccccc2[nH]1 (stereo not drawn),,inactive: -27.8%
COc1cc(C2NC(=S)NC(c3ccccc3)=C2C(C)=O)ccc1O (stereo not drawn),,inactive: -10.1%
COc1ccccc1-c1cc(C(F)(F)F)nc(S(=O)(=O)CCCC(=O)Nc2cccnc2Cl)n1,"inconclusive [inhibitor, single point]",
CC(Oc1cccc(Cl)c1)C(=O)Nc1ccc(S(=O)(=O)N(C)C2CCN(C)CC2)cc1 (stereo not drawn),"inconclusive [inhibitor, partial curve, poor fit]",
Cc1cccc(C)c1NC(=O)CCCSc1nc2ccccc2s1,"inconclusive [inhibitor, single point]",
COC(=O)C(C(C)=O)C1=C/C(=N\S(=O)(=O)c2ccc(C)cc2)c2ccccc2C1=O (stereo not drawn),"inconclusive [inhibitor, single point]",
CCOC(=O)Nc1ccc2c3c(cccc13)-c1ccccc1-2,"inconclusive [inhibitor, single point]",
O=C(CC1C(=O)N(c2ccccc2)C(=S)N1c1ccccc1)c1ccccc1 (stereo not drawn),"inconclusive [inhibitor, single point]",
CCOc1ccccc1N(C(=O)Cn1nnnc1-c1ccc(C)o1)C(CC)C(=O)NC(C)(C)C (stereo not drawn),"inconclusive [inhibitor, partial curve, poor fit]",
CCC(NC(=O)c1ccc2nc(Cc3ccc(OC)cc3)oc2c1)c1ccncc1 (stereo not drawn),,inactive: -29.7%
Cc1ccccc1OCC(O)Cn1c(=N)n(CCN2CCOCC2)c2ccccc21 (stereo not drawn),"inconclusive [inhibitor, partial curve, poor fit]",
O=C(N/N=C/c1ccccc1O)C1CC(=O)N(c2ccc(F)cc2)C1 (stereo not drawn),"inconclusive [inhibitor, single point]",
CC(=O)c1cccc(NC(=O)C(Sc2ncnc3ccccc23)c2ccccc2)c1 (stereo not drawn),"inconclusive [inhibitor, single point]",

Compound,Potency,"activity change, negative = inhibition"
CCOC(=O)c1sc(Nc2ccc(C)cc2C)nc1C,"inconclusive [inhibitor, single point]",
Cc1onc(-c2ccccc2Cl)c1C(=O)Nc1cnn(Cc2ccccc2)c1,"inconclusive [inhibitor, single point]",
COc1cc(-c2cc3nc(NCCOc4ccccc4)ccn3n2)cc(OC)c1OC,"inconclusive [inhibitor, partial curve, poor fit]",
Cc1cccc(-n2c(=O)c3c(c4cc(C)ccc4n3C)n(CC(=O)Nc3ccccc3C(F)(F)F)c2=O)c1,,inactive: 10.6%
Cc1ccc(-n2c(SCC(=O)N3CCOCC3)nnc2-c2ccncc2)cc1,,inactive: 9.63%
CCc1ccc([C@@H]2C[C@H]3[C@@H](CN2S(=O)(=O)c2ccc(C)cc2)C(=O)C[C@@H](c2ccc(Cl)cc2)N3S(=O)(=O)c2ccc(C)cc2)cc1,,inactive: 1.48%
Cc1cccc(Cn2c(=O)n(Cc3ccco3)c(=O)c3ccccc32)c1,"inconclusive [inhibitor, single point]",
O=C(c1ccc(-c2ccccc2)cc1)N1CCN(c2ccccc2F)CC1,"inconclusive [inhibitor, single point]",
c1ccc(C(c2cccs2)c2c[nH]c3ccccc23)cc1 (stereo not drawn),"inconclusive [inhibitor, single point]",
CN(C(=O)CSc1nc2ccccc2n1CC(=O)NCc1ccc(F)cc1)c1ccc(F)cc1,"inconclusive [inhibitor, single point]",
O=C(CSc1ccc(Br)c2cccc(Cl)c12)Nc1ccc(S(=O)(=O)Nc2nccs2)cc1,"inconclusive [inhibitor, partial curve, poor fit]",
Cc1sc(NC(=O)C2CSC3(C)CCC(=O)N23)nc1-c1ccc(F)cc1 (stereo not drawn),"inconclusive [inhibitor, partial curve, poor fit]",
CCS(=O)(=O)c1ccccc1C(=O)N(Cc1cccnc1)c1nc2cc(C)c(C)cc2s1,"inconclusive [inhibitor, single point]",
O=c1n(CCCN2CCN(c3cccc(Cl)c3)CC2)nc2ccccn12,,inactive: 1.3%
COc1ccc(Nc2cc(=O)n(C3CCCCC3)c(=O)[nH]2)c(OC)c1,"inconclusive [inhibitor, partial curve]",
CCCCN(Cc1ccccc1)S(=O)(=O)c1ccc2c(c1)CC(C)N2C(=O)CC (stereo not drawn),,inactive: 19.9%
CCOC(=O)c1cc(C#N)c(N2CCOCC2)nc1-c1ccccc1,"inconclusive [inhibitor, single point]",
Cc1cc2nc(-c3ccc(Cl)cc3)c(Cc3cccc(F)c3)n2c(C)c1Br,"inconclusive [inhibitor, single point]",
Brc1cccc(C2CC(c3ccccc3)n3nnnc3N2)c1 (stereo not drawn),"inconclusive [inhibitor, single point]",
Cc1cccc(NC(=S)N(C)Cc2cn(C)c3ccccc23)c1,"inconclusive [inhibitor, single point]",
Cc1onc(-c2ccccc2)c1CNC(=O)Nc1ccc(F)cc1F,"inconclusive [inhibitor, single point]",

# From PubChem BioAssay AID624417 (National Center for Advancing Translational Sciences (NCATS), 2012)
